T1: RBFOX1 RRM RbFoxmut (Fox-RRM*) (Homo sapiens, UniProt Q9NWB1 109-208, R118D;E147R;N151S;E152T)
T1 sequence: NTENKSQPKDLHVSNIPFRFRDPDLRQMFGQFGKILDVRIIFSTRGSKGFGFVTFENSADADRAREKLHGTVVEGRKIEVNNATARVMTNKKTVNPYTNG

B1: GUAGCAA (DNA:RNA)
RNA: GGGAGACCGGAAUUCAGAUUGUCCGUAGCAAUUAAAUCCCGUCGUAGCCACCA
DNA 1: CAATCTGAATTCCGGTCTCCC
DNA 2: TGGTGGCTACGACGGGATT
B2: GAAGCCG (DNA:RNA)
RNA: B1 RNA with U26A, A30C, A31G
DNA 1: CAATCTGAATTCCGGTCTCCC
DNA 2: TGGTGGCTACGACGGGATT
B3: GAUUGAU (DNA:RNA)
RNA: B1 RNA with U26A, A27U, G28U, C29G, A31U
DNA 1: CAATCTGAATTCCGGTCTCCC
DNA 2: TGGTGGCTACGACGGGATT
B4: UACGCGA (DNA:RNA)
RNA: B1 RNA with G25U, U26A, A27C, A30G
DNA 1: CAATCTGAATTCCGGTCTCCC
DNA 2: TGGTGGCTACGACGGGATT
B5: AGGAUCC (DNA:RNA)
RNA: GGGAGACCGGAAUUCAGAUUGUCCAGGAUCCUUAAAUCCCGUCGUAGCCACCA
DNA 1: CAATCTGAATTCCGGTCTCCC
DNA 2: TGGTGGCTACGACGGGATT
B6: UAGUUCU (DNA:RNA)
RNA: B5 RNA with A25U, G26A, A28U, C31U
DNA 1: CAATCTGAATTCCGGTCTCCC
DNA 2: TGGTGGCTACGACGGGATT
B7: GGACCGU (DNA:RNA)
RNA: B1 RNA with U26G, G28C, A30G, A31U
DNA 1: CAATCTGAATTCCGGTCTCCC
DNA 2: TGGTGGCTACGACGGGATT
B8: GCAAGAA (DNA:RNA)
RNA: B1 RNA with U26C, G28A, C29G
DNA 1: CAATCTGAATTCCGGTCTCCC
DNA 2: TGGTGGCTACGACGGGATT
B9: AUGUAGG (DNA:RNA)
RNA: B5 RNA with G26U, A28U, U29A, C30G, C31G
DNA 1: CAATCTGAATTCCGGTCTCCC
DNA 2: TGGTGGCTACGACGGGATT
B10: GACGGAU (DNA:RNA)
RNA: B1 RNA with U26A, A27C, C29G, A31U
DNA 1: CAATCTGAATTCCGGTCTCCC
DNA 2: TGGTGGCTACGACGGGATT
B11: GGGUUGC (DNA:RNA)
RNA: B5 RNA with A25G, A28U, C30G
DNA 1: CAATCTGAATTCCGGTCTCCC
DNA 2: TGGTGGCTACGACGGGATT
B12: GUCCCAG (DNA:RNA)
RNA: B1 RNA with A27C, G28C, A31G
DNA 1: CAATCTGAATTCCGGTCTCCC
DNA 2: TGGTGGCTACGACGGGATT
B13: GGGUUGA (DNA:RNA)
RNA: B5 RNA with A25G, A28U, C30G, C31A
DNA 1: CAATCTGAATTCCGGTCTCCC
DNA 2: TGGTGGCTACGACGGGATT
B14: UAGUUAC (DNA:RNA)
RNA: B5 RNA with A25U, G26A, A28U, C30A
DNA 1: CAATCTGAATTCCGGTCTCCC
DNA 2: TGGTGGCTACGACGGGATT
B15: AAAGUGC (DNA:RNA)
RNA: B5 RNA with G26A, G27A, A28G, C30G
DNA 1: CAATCTGAATTCCGGTCTCCC
DNA 2: TGGTGGCTACGACGGGATT
B16: GGAAAAA (DNA:RNA)
RNA: B1 RNA with U26G, G28A, C29A
DNA 1: CAATCTGAATTCCGGTCTCCC
DNA 2: TGGTGGCTACGACGGGATT
B17: AUAGUCC (DNA:RNA)
RNA: B5 RNA with G26U, G27A, A28G
DNA 1: CAATCTGAATTCCGGTCTCCC
DNA 2: TGGTGGCTACGACGGGATT
B18: GACUUAA (DNA:RNA)
RNA: B1 RNA with U26A, A27C, G28U, C29U
DNA 1: CAATCTGAATTCCGGTCTCCC
DNA 2: TGGTGGCTACGACGGGATT
B19: UUCAAUG (DNA:RNA)
RNA: B5 RNA with A25U, G26U, G27C, U29A, C30U, C31G
DNA 1: CAATCTGAATTCCGGTCTCCC
DNA 2: TGGTGGCTACGACGGGATT
B20: ACCCAUU (DNA:RNA)
RNA: B5 RNA with G26C, G27C, A28C, U29A, C30U, C31U
DNA 1: CAATCTGAATTCCGGTCTCCC
DNA 2: TGGTGGCTACGACGGGATT
B21: UGCGUAA (DNA:RNA)
RNA: B1 RNA with G25U, U26G, A27C, C29U
DNA 1: CAATCTGAATTCCGGTCTCCC
DNA 2: TGGTGGCTACGACGGGATT
B22: UACAUCC (DNA:RNA)
RNA: B5 RNA with A25U, G26A, G27C
DNA 1: CAATCTGAATTCCGGTCTCCC
DNA 2: TGGTGGCTACGACGGGATT
B23: UCUUUUA (DNA:RNA)
RNA: B5 RNA with A25U, G26C, G27U, A28U, C30U, C31A
DNA 1: CAATCTGAATTCCGGTCTCCC
DNA 2: TGGTGGCTACGACGGGATT
B24: CACUUAC (DNA:RNA)
RNA: B5 RNA with A25C, G26A, G27C, A28U, C30A
DNA 1: CAATCTGAATTCCGGTCTCCC
DNA 2: TGGTGGCTACGACGGGATT
B25: UGCUCUA (DNA:RNA)
RNA: B1 RNA with G25U, U26G, A27C, G28U, A30U
DNA 1: CAATCTGAATTCCGGTCTCCC
DNA 2: TGGTGGCTACGACGGGATT
B26: GCUUUGA (DNA:RNA)
RNA: B1 RNA with U26C, A27U, G28U, C29U, A30G
DNA 1: CAATCTGAATTCCGGTCTCCC
DNA 2: TGGTGGCTACGACGGGATT
B27: UCUUAGA (DNA:RNA)
RNA: B1 RNA with G25U, U26C, A27U, G28U, C29A, A30G
DNA 1: CAATCTGAATTCCGGTCTCCC
DNA 2: TGGTGGCTACGACGGGATT
B28: UAGUAAG (DNA:RNA)
RNA: B5 RNA with A25U, G26A, A28U, U29A, C30A, C31G
DNA 1: CAATCTGAATTCCGGTCTCCC
DNA 2: TGGTGGCTACGACGGGATT
B29: UUUUUCG (DNA:RNA)
RNA: B5 RNA with A25U, G26U, G27U, A28U, C31G
DNA 1: CAATCTGAATTCCGGTCTCCC
DNA 2: TGGTGGCTACGACGGGATT
B30: CGUUUGU (DNA:RNA)
RNA: B5 RNA with A25C, G27U, A28U, C30G, C31U
DNA 1: CAATCTGAATTCCGGTCTCCC
DNA 2: TGGTGGCTACGACGGGATT
B31: CGUGAGA (DNA:RNA)
RNA: B1 RNA with G25C, U26G, A27U, C29A, A30G
DNA 1: CAATCTGAATTCCGGTCTCCC
DNA 2: TGGTGGCTACGACGGGATT

Numbering of substitutions follows the chain as printed; changes in the protein carry UniProt numbers. Some of the results follow.

For this assay, the target named is T1, RBFOX1 RRM RbFoxmut (Fox-RRM*). The assay is described as follows: EMSA; HiTS-Eq, 1 nM pool, 10 min; buffer printed only for the single-RNA assays: 10 mM Tris pH 7.5, 150 mM NaCl, 3.4 mM EDTA, 0.001% NP-40, 30 C. The settings on record: tags: His6 N-terminal (pET28a); label: 5' 32P. Summed up: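 Purified RbFox RRM, wild type or mutant, was incubated for 10 min in 50 µL with 1 nM of a 5′-radiolabelled RNA pool carrying 7 randomized nucleotides, whose flanks were annealed to DNA oligonucleotides, over a series of increasing protein concentrations. Unbound RNA was resolved on 8% native PAGE, cut out, reverse-transcribed, barcoded by PCR and sequenced on an Illumina HiSeq 2500. Relative association constants were derived from changes in read counts for each RNA species versus the control reaction and normalised to the cognate motif.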
Take B1: the binding signal is 0.0808 KA relative to UGCAUGU.

As for B2, the binding signal is 0.0597 KA relative to UGCAUGU.

Turning to B3, the binding signal was 0.13 KA relative to UGCAUGU.

In the case of B4, the binding signal was 0.0727 KA relative to UGCAUGU.

With B5, the binding signal was 0.142 KA relative to UGCAUGU.

Consider B6, for which the binding signal is 0.0937 KA relative to UGCAUGU.

As for B7, the binding signal was 0.164 KA relative to UGCAUGU.

As to B8, the binding signal was 0.0932 KA relative to UGCAUGU.

As to B9, the binding signal is 0.128 KA relative to UGCAUGU.

As to B10, the binding signal was 0.0889 KA relative to UGCAUGU.

Consider B11, for which the binding signal is 0.256 KA relative to UGCAUGU.

As for B12, the binding signal was 0.0902 KA relative to UGCAUGU.

Turning to B13, the binding signal was 0.356 KA relative to UGCAUGU.

Regarding B14, the binding signal is 0.101 KA relative to UGCAUGU.

With B15, the binding signal is 0.102 KA relative to UGCAUGU.

As for B16, the binding signal was 0.0507 KA relative to UGCAUGU.

B17: the binding signal is 0.0899 KA relative to UGCAUGU.

Consider B18, for which the binding signal was 0.092 KA relative to UGCAUGU.

In the case of B19, the binding signal was 0.0878 KA relative to UGCAUGU.

B20: the binding signal is 0.0896 KA relative to UGCAUGU.

On to B21, for which the binding signal is 0.118 KA relative to UGCAUGU.

Regarding B22, the binding signal is 0.0661 KA relative to UGCAUGU.

On to B23, for which the binding signal was 0.119 KA relative to UGCAUGU.

For the molecule B24, the binding signal was 0.1 KA relative to UGCAUGU.

B25: the binding signal is 0.119 KA relative to UGCAUGU.

Take B26: the binding signal is 0.122 KA relative to UGCAUGU.

Consider B27, for which the binding signal is 0.109 KA relative to UGCAUGU.

For B28, the binding signal is 0.118 KA relative to UGCAUGU.

Regarding B29, the binding signal was 0.0908 KA relative to UGCAUGU.

Consider B30, for which the binding signal was 0.3 KA relative to UGCAUGU.

Take B31: the binding signal is 0.124 KA relative to UGCAUGU.

The record behind these values is article PMC9911399, “Two distinct binding modes provide the RNA-binding protein RbFox with extraordinary sequence specificity”.
